For this assay, the system named is Plasmodium falciparum. The assay is described as follows: Primary screen in NF54 nanoGlo assay, in single point, at 2uM, 72h; a lower Z score goes with more inhibition. Type of assay: functional, Erythrocyte. The note with it: timepoint 72 hour.

Screen size: about 150,000 compounds; about 540 (0.36%) showed an effect of 50% or more. This is one part of the list.

By % Inhibition is commonly meant the relative decrease from the control value, in per cent. For `CCc1nc(N2CCC[C@H](CNC(=O)c3ncccc3C)C2)no1`, the “% Inhibition” value is listed as -9% and the Z score came to 1.85.

Consider `NC(=O)c1ccncc1NC(=O)C1CC1c1ccco1` (stereo unspecified), for which the “% Inhibition” value is listed as -3% and the Z score was found to be 0.56.

For `CN=C(NCc1cccc(OC)c1OC1CCCC1)NC[C@H](C)C#N`, the “% Inhibition” value was 0% and the Z score is reported as 0.03.

Take `Cc1ccc(N2C[C@@H](c3nnc(NC(=O)Cc4ccc(Cl)cc4)o3)CC2=O)cc1`: the “% Inhibition” value stood at 32% and the Z score was -4.32.

Regarding `Cc1nnc(N2CCC(c3nc4c(s3)CCC4)CC2)nc1C`, the “% Inhibition” value is on record as -10% and the Z score stood at 1.92.

On to `Cc1nccn1-c1ncc(NC(=O)c2ccccc2F)cn1`, for which the “% Inhibition” value is -12% and the Z score turned out to be 1.86.

In the case of `Cc1nc([C@@H]2CCCCCN2C(=O)Cc2cccc(F)c2)no1`, the “% Inhibition” value is -17% and the Z score is recorded as 1.42.

`O=C(Cc1c[nH]c2ccccc12)NC1(C(=O)N2CC(O)C2)CCCC1`: the “% Inhibition” value was 10% and the Z score was -0.98.

With `CN(CC(=O)Nc1ccc(Cl)cc1F)C1C2CCOC2C1(C)C` (stereo unspecified), the “% Inhibition” value is given as -7% and the Z score is recorded as 1.13.

Regarding `Cn1c(C(=O)NCCCN2CCCC2=O)cc2c1CCN(Cc1ccccc1)C2`, the “% Inhibition” value was -12% and the Z score came to 1.41.

As for `CC[C@@]1(C)CC(=O)N(Cc2nnn(C)n2)C1=O`, the “% Inhibition” value is 1% and the Z score is recorded as -0.13.

Regarding `Cc1cc(COc2cccc(S(C)(=O)=O)c2)on1`, the “% Inhibition” value came out at 5% and the Z score is -0.49.

As to `CCCCN1C(=O)CC[C@@H]2CN(C(=O)c3ncoc3C3CC3)CC[C@@H]21`, the “% Inhibition” value was 1% and the Z score was -0.23.

With `CN(Cc1ccccc1Cn1cccn1)Cc1nncn1C`, the “% Inhibition” value was found to be 1% and the Z score was -0.18.

As for `O=C1CN(C(=O)c2ccc(Cl)o2)c2ccccc2N1`, the “% Inhibition” value was -3% and the Z score was 0.39.

On to `C[C@H](O)CCNc1ccc(Br)cc1C#N`, for which the “% Inhibition” value is listed as -4% and the Z score amounted to 0.53.

Turning to `CC(C)(C)NC(=O)N(Cc1ccc(F)cc1)C[C@H]1CC(c2ccccc2)=NO1`, the “% Inhibition” value is recorded as -27% and the Z score is given as 2.41.

Take `CCCNC(=O)c1coc(CN2CCN(Cc3ccccc3C(F)(F)F)CC2)n1`: the “% Inhibition” value is on record as -11% and the Z score was 2.2.

Consider `CC1CCCC(NC2CCN(Cc3ccccc3)CC2)C1` (stereo unspecified), for which the “% Inhibition” value is listed as -7% and the Z score amounted to 1.38.

For the compound `Cc1cc(NC(=O)CN2CCN(S(=O)(=O)c3ccc(F)cc3)CC2)on1`, the “% Inhibition” value was -3% and the Z score is 0.43.

In the case of `CCNc1nc(C(N)=O)c(NC(=O)c2cc(-c3ccccc3)nc3ccccc23)s1`, the “% Inhibition” value was -9% and the Z score is given as 1.27.

On to `CC[C@H](O)Cn1nnnc1Cc1cc(Br)ccc1OC`, for which the “% Inhibition” value is recorded as -10% and the Z score is given as 1.06.

Take `Cc1ccc(CNC(=O)[C@H]2CCCN(C(=O)c3nnc(C(=O)Nc4ccc5c(c4)OCO5)s3)C2)cc1`: the “% Inhibition” value was -27% and the Z score was 2.39.

In the case of `Cc1cccc(NC(=O)CC(=O)NCCCc2c(C)n[nH]c2C)c1C`, the “% Inhibition” value is recorded as 13% and the Z score is recorded as -2.52.

For the compound `O=C(Nc1ccc(N2CCN(C(=O)C3CCCC3)CC2)nc1)c1ccc(F)cc1F`, the “% Inhibition” value is listed as -1% and the Z score is given as 0.22.

Turning to `Cn1nc(C(=O)N2CC(OCC(F)(F)F)C2)ccc1=O`, the “% Inhibition” value is -11% and the Z score was found to be 1.69.

For `Cc1nn(C)c(C)c1CN[C@H]1CS(=O)(=O)C1(C)C`, the “% Inhibition” value is on record as 8% and the Z score is -1.66.

With `C[C@](O)(CNC(=O)c1ccc(-c2ccsc2)cc1)c1ccc2c(c1)OCO2`, the “% Inhibition” value is on record as -11% and the Z score is 1.97.

For the compound `Cn1nnc2c(N3CCN(S(=O)(=O)c4cccnc4)CC3)ncnc21`, the “% Inhibition” value is -5% and the Z score is reported as 0.79.

Regarding `Cc1ccc(Cl)cc1N1CCN(C(=O)c2ccc3c(c2)CCN3S(=O)(=O)c2ccccc2)CC1`, the “% Inhibition” value is reported as -7% and the Z score stood at 1.29.

In the case of `COc1cc2c(cc1OC)CN(c1ncnc3[nH]ncc13)CC2`, the “% Inhibition” value came to 3% and the Z score is listed as -0.28.

In the case of `Cc1nc(NC2CCCCC2)sc1C(=O)Nc1ccccc1`, the “% Inhibition” value is given as 1% and the Z score is -0.19.

As for `CC(C)c1sc(NC(=O)N2CC[C@H](O)C2)nc1-c1ccccc1`, the “% Inhibition” value came out at 1% and the Z score is given as -0.11.

As for `CC(=O)Nc1cccc(-c2ncnc3sccc23)c1`, the “% Inhibition” value was -4% and the Z score stood at 0.47.

With `CCN(Cc1ccc(OC)c(OC)c1)C(=O)c1cccc(NS(=O)(=O)c2ccccc2)c1`, the “% Inhibition” value is reported as -6% and the Z score came out at 0.92.

With `OCc1ccccc1-c1nccc2occc12`, the “% Inhibition” value is recorded as -10% and the Z score came to 0.95.

On to `CCC(CC)(CO)CNC(=O)c1ccc2c(c1)COCO2`, for which the “% Inhibition” value is given as -1% and the Z score turned out to be 0.16.

For `COC[C@H]1CCCN1C(=O)c1cc(C)oc1-c1ccccc1`, the “% Inhibition” value was 1% and the Z score is reported as -0.26.

With `CCN1CCC[C@@H]1CNC(=O)c1ccccn1`, the “% Inhibition” value is reported as -9% and the Z score is given as 1.01.

Consider `CCc1nccc(-c2nccn2Cc2cnn(CC)c2)n1`, for which the “% Inhibition” value stood at 4% and the Z score was -0.53.

For the compound `Cc1c(C)n(Cc2ccccc2)c2ccc(C(=O)N3CCc4ccccc4C3)cc12`, the “% Inhibition” value amounted to 8% and the Z score is -1.01.

Regarding `CC(C)(C)c1cc2n(n1)CCN(CCOc1cccc(C(=O)O)c1)C2`, the “% Inhibition” value is -2% and the Z score stood at 0.45.

On to `O=C1C[C@H](NC(=O)c2cc3n(n2)CCCO3)CN1`, for which the “% Inhibition” value is reported as -10% and the Z score is listed as 1.49.

The values are drawn from ChEMBL document CHEMBL4888484, “Replenishing the malaria drug discovery pipeline: Screening and hit evaluation of the MMV Hit Generation Library 1 (HGL1) against asexual blood stage Plasmodium falciparum ,using a nano luciferase reporter read-out” (2022).
